Measurements: the supplement of paper PMC4967469
Lines with a small IC50 respond at low doses; where the fit passes the top or lowest dose, that dose stands as a limit. For AUC the same curve is integrated over the 256-fold range of doses and scaled to a fraction; values near 1 show little effect. For part of these data: Any top dose called inferred is not printed in the source and was worked back from the curve model.

Tests used:
Assay in all cases: Viability of human cancer cell lines after 72 h of drug (GDSC screen)
Tubastatin A = compound: CN1CCc2c(c3ccccc3n2Cc2ccc(C(=O)NO)cc2)C1 [Tubastatin A]; conditions: top dose 20 µM
Method: (§1)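 Human cancer cell lines in 384-well plates, medium with 10% serum, drug for 72 h over a 256-fold dose range (nine 2-fold or five 4-fold steps up to the top dose). Adherent lines were fixed and stained with the nucleic acid dye Syto60, suspension lines read with resazurin; signal relative to control wells, capped at 0 and 100%. One two-parameter sigmoid per drug and line, fitted in a mixed model over all curves with the slope shared within a line.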

Temozolomide = compound: Cn1nnc2c(C(N)=O)ncn2c1=O [Temozolomide]; conditions: top dose 30 µM
Method: as §1

IPA-3 = compound: Oc1ccc2ccccc2c1SSc1c(O)ccc2ccccc12 [IPA-3]; conditions: top dose 32 µM; top dose inferred
Method: as §1

Z-LLNle-CHO = compound: CCCC[C@@H](C=O)NC(=O)[C@H](CC(C)C)NC(=O)[C@H](CC(C)C)NC(=O)OCc1ccccc1 [Z-LLNle-CHO]; conditions: top dose 2.56 µM; top dose inferred
Method: as §1

XL-880 = compound: COc1cc2c(Oc3ccc(NC(=O)C4(C(=O)Nc5ccc(F)cc5)CC4)cc3F)ccnc2cc1OCCCN1CCOCC1 [XL-880]; conditions: top dose 5.12 µM; top dose inferred
Method: as §1

CI-1040 = compound: O=C(NOCC1CC1)c1ccc(F)c(F)c1Nc1ccc(I)cc1Cl [CI-1040]; conditions: top dose 10 µM; top dose inferred
Method: as §1

Rapamycin = compound: CO[C@H]1C[C@@H]2CC[C@@H](C)[C@@](O)(O2)C(=O)C(=O)N2CCCC[C@H]2C(=O)O[C@H]([C@H](C)C[C@@H]2CC[C@@H](O)[C@H](OC)C2)CC(=O)[C@H](C)/C=C(\C)[C@@H](O)[C@@H](OC)C(=O)[C@H](C)C[C@H](C)/C=C/C=C/C=C/1C [Rapamycin]; conditions: top dose 0.1 µM; top dose inferred
Method: as §1

JW-7-52-1 = compound: CCC(=O)N1CCN(c2ccc(-n3c(=O)ccc4cnc5ccc(-c6cnc7ccccc7c6)cc5c43)cc2C(F)(F)F)CC1 [JW-7-52-1]; conditions: top dose 1.2 µM; top dose inferred
Method: as §1

Row | Cell Line | AUC (Tubastatin A) | IC50 (Tubastatin A) | AUC (Temozolomide) | IC50 (Temozolomide) | AUC (IPA-3) | IC50 (IPA-3) | AUC (Z-LLNle-CHO) | IC50 (Z-LLNle-CHO) | AUC (XL-880) | IC50 (XL-880) | AUC (CI-1040) | IC50 (CI-1040) | AUC (Rapamycin) | IC50 (Rapamycin) | AUC (JW-7-52-1) | IC50 (JW-7-52-1)
1 | NCI-H69 (small cell lung carcinoma, suspension) | 0.965 | > 20 µM | 0.965 | > 30 µM | 0.982 | > 32 µM | 0.771 | 1100 nM | 0.942 | > 5120 nM | 0.974 | > 10 µM | 0.923 | > 100 nM | 0.702 | 299 nM
2 | Raji (Burkitt lymphoma, suspension) | 0.913 | > 20 µM | 0.987 | > 30 µM | 0.931 | > 32 µM | 0.78 | 985 nM | 0.833 | 3010 nM | 0.954 | > 10 µM | 0.816 | 51 nM | 0.816 | 609 nM
3 | DB (B-cell lymphoma, suspension) | 0.829 | 14.7 µM | 0.901 | > 30 µM | 0.753 | 11.9 µM | 0.782 | 1220 nM | 0.685 | 1130 nM | 0.979 | > 10 µM | 0.811 | 61.6 nM | 0.711 | 322 nM
4 | LOUCY (T-cell lymphoblastic leukaemia, suspension) | 0.862 | 12.2 µM | 0.989 | > 30 µM | 0.929 | > 32 µM | 0.691 | 489 nM | 0.516 | 350 nM | 0.971 | > 10 µM | 0.92 | > 100 nM | 0.485 | 68.7 nM
5 | CHP-126 (neuroblastoma, suspension) | 0.928 | > 20 µM | 0.889 | > 30 µM | 0.681 | 6.52 µM | 0.987 | > 2560 nM | 0.809 | 2770 nM | 0.889 | > 10 µM | 0.972 | > 100 nM | 0.963 | > 1200 nM
6 | NCI-H1666 (lung adenocarcinoma, semi-adherent) | 0.986 | > 20 µM | 0.977 | > 30 µM | 0.863 | > 32 µM | 0.976 | > 2560 nM | 0.863 | > 5120 nM | 0.485 | 0.565 µM | 0.958 | > 100 nM | 0.963 | > 1200 nM
7 | MS-1 (small cell lung carcinoma, suspension) | 0.879 | 16.8 µM | 0.983 | > 30 µM | 0.954 | > 32 µM | 0.99 | > 2560 nM | 0.594 | 562 nM | 0.979 | > 10 µM | 0.986 | > 100 nM | 0.744 | 341 nM
8 | NCI-H209 (small cell lung carcinoma, suspension) | 0.986 | > 20 µM | 0.976 | > 30 µM | 0.984 | > 32 µM | 0.976 | > 2560 nM | 0.699 | 1210 nM | 0.907 | > 10 µM | 0.762 | 38.2 nM | 0.669 | 231 nM
9 | SU-DHL-16 (B-cell lymphoma, suspension) | 0.914 | 14.6 µM | 0.99 | > 30 µM | 0.749 | 8.07 µM | 0.746 | 636 nM | 0.331 | 125 nM | 0.971 | > 10 µM | 0.348 | 2.68 nM | 0.485 | 69.1 nM
10 | LAMA-84 (chronic myeloid leukaemia, suspension) | 0.938 | > 20 µM | 0.974 | > 30 µM | 0.878 | > 32 µM | 0.783 | 1090 nM | 0.265 | 67.8 nM | 0.445 | 0.441 µM | 0.849 | 76.6 nM | 0.351 | 28.7 nM
11 | Ramos-2G6-4C10 (Burkitt lymphoma, suspension) | 0.878 | 15.3 µM | 0.985 | > 30 µM | 0.767 | 10.2 µM | 0.701 | 533 nM | 0.435 | 219 nM | 0.889 | 8.5 µM | 0.307 | 1.97 nM | 0.326 | 26.6 nM
12 | SK-ES-1 (Ewing sarcoma, semi-adherent) | 0.964 | > 20 µM | 0.975 | > 30 µM | 0.645 | 5.19 µM | 0.871 | > 2560 nM | 0.64 | 801 nM | 0.951 | > 10 µM | 0.87 | > 100 nM | 0.507 | 78.4 nM
13 | SF539 (glioma, adherent) | 0.917 | > 20 µM | 0.966 | > 30 µM | 0.772 | 11.1 µM | 0.743 | 728 nM | 0.593 | 558 nM | 0.913 | > 10 µM | 0.118 | 0.447 nM | 0.854 | 798 nM
14 | U-698-M (B-cell leukaemia, suspension) | 0.945 | > 20 µM | 0.978 | > 30 µM | 0.576 | – | 0.939 | > 2560 nM | 0.777 | 2050 nM | 0.909 | > 10 µM | 0.963 | > 100 nM | 0.883 | > 1200 nM
15 | P30-OHK (lymphoblastic leukaemia, suspension) | 0.551 | 1.68 µM | 0.968 | > 30 µM | 0.732 | 7.98 µM | 0.945 | > 2560 nM | 0.459 | 252 nM | 0.991 | > 10 µM | 0.984 | > 100 nM | 0.925 | > 1200 nM
16 | Calu-6 (lung adenocarcinoma, adherent) | 0.97 | > 20 µM | 0.974 | > 30 µM | 0.956 | > 32 µM | 0.915 | > 2560 nM | 0.796 | 2810 nM | 0.779 | 4.73 µM | 0.984 | > 100 nM | 0.633 | 185 nM
